Data: paper PMC6451091
This is one part of the list. For some assays here: At the low end of the ranking, values are background and their order means little. For some assays here: Measured with an extract: partners may take part in the binding.

What follows are sequences tested against PU.1 (IVT) (UniProt P17947) (assay: protein-binding microarray (PBM)). Settings: 20 mM HEPES pH 7.9, 100 mM NaCl, 1 mM DTT, 0.2 mg/mL BSA, 0.02% Triton X-100, 2% milk, 0.4 mg/mL salmon testes DNA; 1 h; temperature not stated; high values mean tight binding; double strand, one strand shown; sequences stand for … in GCCTAGCAC…GTGCTAGGTCTTGATTCGCTTGACGCTGCTG.

Sequence	binding signal [z-score]
CAAGAGAGGAAGTGGTCAAC	4.51
CAATAAAGGAAGTGGAGACA	2.96
AAAAAAAGGCACTGGCTAGA	-0.164
TCCTGGAGGAAGTGATGCTG	2.92
AGAAAGGGGAAGTGACTTGC	8.13
CAAAAAGGGAAGAGGATGCT	3.05
AAACTGAGGAAGTGATGACT	3.4
GAAAACAGGAAGTGACTGTT	8.08
AAAAAGAGGAAGTGATGACC	8.84
AAGAAGAGGAAGTGGAGAGG	5.58
CTAATAGGGAAGTGGCCAAG	4.86
GAAGAAGGGAAGTACTGTGG	3.75
CAAAAAGGGTAGTGGATGCT	1.25
TACAAGAGGAAGTGAATTTT	5.76
CATTTGTAGAAGTACTGTGC	0.808
GCTGGGAGGAAGTGAGACCT	3.28
AAAGTAAGGAAGTGCTTAAA	3.42
GAAATGAGGAAGTGATTAGG	8.13
GGTGGGAGGAAGTGTTTTCT	4.07
AGGTTGAGGAAGTGAATTCT	4.62

Sequence	binding signal [z-score]
TAGATGAGGAAGTAGCTCAA	5.68
AGAAAGGGGAAGTGATTTGT	8.13
GGGAGGAGGAAGTGGGTCGG	4.31
AGGAAGAGGAAGTCCCTCAA	5.93
GGAAAGAGGAACTGATATAT	6.18
CAAAAGAGGAAGCCGAGGTG	4.84
AAAAAGAGGAAATGGAGAAT	5.91
TTTTTGAGGAACTGCCAAGC	4.24
TCTTAGAGGAACTGAAATGG	2.19
GGAATCAGGAAGTGAAAAGA	4.96
CCCATAGGGAAGTGCACTGA	3.67
GACATGAGGAAGTCAGTAAA	4.25
CCGATGGGGAAGTGGTGCTG	4.58
ACAAAAAGGAAGTGTGCCCC	3.5
GAAATGAGGAAGTCAAATTA	7.71
CGAAAGGGGAAGTGCTAAAG	6.86
TAAAACAGGAAGTGTACTCT	7.45
AATTAAAGGAAGTGATTCTA	4.22
GGAAAGAGGAACTAGCCTTG	7.04
ACAAACAGGAAGTGTCCTGT	5.9

The sequences below were run against PU.1 (endogenous, THP-1 nuclear extract) (UniProt P17947) (assay: nuclear extract protein-binding microarray (nextPBM)). Settings: 20 mM HEPES pH 7.9, 100 mM NaCl, 1 mM DTT, 0.2 mg/mL BSA, 0.02% Triton X-100, 2% milk, 0.4 mg/mL salmon testes DNA; 1 h; temperature not stated; high values mean tight binding; double strand, one strand shown; sequences stand for … in GCCTAGCAC…GTGCTAGGTCTTGATTCGCTTGACGCTGCTG.

Sequence	binding signal [z-score]
CAAGAGAGGAAGTGGTCAAC	4.91
CAATAAAGGAAGTGGAGACA	3.37
AAAAAAAGGCACTGGCTAGA	-0.0472
TCCTGGAGGAAGTGATGCTG	2.79
AGAAAGGGGAAGTGACTTGC	7.51
CAAAAAGGGAAGAGGATGCT	3.02
AAACTGAGGAAGTGATGACT	3.34
GAAAACAGGAAGTGACTGTT	7.33
AAAAAGAGGAAGTGATGACC	7.31
AAGAAGAGGAAGTGGAGAGG	6.36
CTAATAGGGAAGTGGCCAAG	5.49
GAAGAAGGGAAGTACTGTGG	3.29
CAAAAAGGGTAGTGGATGCT	1.29
TACAAGAGGAAGTGAATTTT	6.33
CATTTGTAGAAGTACTGTGC	0.989
GCTGGGAGGAAGTGAGACCT	3.36
AAAGTAAGGAAGTGCTTAAA	3.1
GAAATGAGGAAGTGATTAGG	7.4
GGTGGGAGGAAGTGTTTTCT	3.53
AGGTTGAGGAAGTGAATTCT	4.52

Sequence	binding signal [z-score]
TAGATGAGGAAGTAGCTCAA	6.49
AGAAAGGGGAAGTGATTTGT	7.28
GGGAGGAGGAAGTGGGTCGG	4.66
AGGAAGAGGAAGTCCCTCAA	6.54
GGAAAGAGGAACTGATATAT	6.62
CAAAAGAGGAAGCCGAGGTG	5.85
AAAAAGAGGAAATGGAGAAT	6.19
TTTTTGAGGAACTGCCAAGC	4.52
TCTTAGAGGAACTGAAATGG	2.48
GGAATCAGGAAGTGAAAAGA	5.81
CCCATAGGGAAGTGCACTGA	3.98
GACATGAGGAAGTCAGTAAA	4.36
CCGATGGGGAAGTGGTGCTG	5.1
ACAAAAAGGAAGTGTGCCCC	2.9
GAAATGAGGAAGTCAAATTA	7.32
CGAAAGGGGAAGTGCTAAAG	7.13
TAAAACAGGAAGTGTACTCT	7.02
AATTAAAGGAAGTGATTCTA	3.89
GGAAAGAGGAACTAGCCTTG	6.75
ACAAACAGGAAGTGTCCTGT	6.24
